Measurements as given in the supplement of paper PMC10126150.
Values marked as one replicate rest on one cluster of the flow cell; about a third of the high ones do not repeat.
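Also: ATP exposure 15 min at 22 °C before imaging.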

The sequences below were run on ATP (assay: switch fluorescence ratio, 500 uM ATP over buffer (Cy3 cluster intensity, sum of 5 cycles each) (fold (ratio)); higher = stronger signal-on switching upon ATP binding; sequences stand for … in TCGTCGGCAGCGTCAGATGTGTATAAGAGACAGTTTTTTTTTTTTTTTTTTTTTTTTT…TC). Conditions: aptamer strand: ATP DNA aptamer (quencher-CACCTGGGGGAGTATTGCGGAGGAAGG + anchor), 100 nM annealed; ATP concentration: 500 uM; one replicate.
Method in brief: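 Imaging in selection buffer was followed by imaging after 15 min with 500 uM ATP at 22 °C, for Cy3-labelled switching-strand clusters annealed to 100 nM quencher-labelled ATP aptamer on a modified Illumina MiSeq flow-cell. Five of these buffer/ATP cycles ran, separated by NaOH stripping and re-annealing. The fluorescence ratio per cluster is summed target-cycle over summed buffer-cycle Cy3 intensity, averaged per switch-domain sequence; clusters outside 100-1000 RFU were removed.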
In the case of CGGTTTATG, the switch fluorescence ratio is reported as 0.985.
In the case of CGGTTTCAGC, the switch fluorescence ratio is reported as 1.04.
CGGTTTCGGC was tested, and the switch fluorescence ratio was 1.03.
Work on CGTAAACTCA yielded a switch fluorescence ratio of 1.11.
Work on CGTAAAGTTA yielded a switch fluorescence ratio of 1.05.
CGTAACTCAT showed a switch fluorescence ratio of 1.
CGTAATCAAA showed a switch fluorescence ratio of 1.04.
CGTAATGCTA showed a switch fluorescence ratio of 1.3.
CGTAATGGAA was tested, and the switch fluorescence ratio was 0.998.
Sequence CGTAATGTG has a switch fluorescence ratio of 1.01.
With CGTACATGA the switch fluorescence ratio was 1.01.
Sequence CGTACCCATG has a switch fluorescence ratio of 1.05.
For CGTACCGGGC, the switch fluorescence ratio was 1.04.
With CGTACGCGAC the switch fluorescence ratio was 3.39.
For CGTACGGTGG, the switch fluorescence ratio was 0.961.
Work on CGTACGGTTG yielded a switch fluorescence ratio of 0.967.
CGTACTACTA was tested, and the switch fluorescence ratio was 1.11.
For CGTACTAGGC, the switch fluorescence ratio was 1.03.
CGTACTCATC showed a switch fluorescence ratio of 1.06.
Work on CGTACTGTTG yielded a switch fluorescence ratio of 1.01.
CGTAGAGTG showed a switch fluorescence ratio of 0.937.
CGTAGCATGG gave a switch fluorescence ratio of 4.14.
For CGTAGCTACG, the switch fluorescence ratio was 1.02.
CGTAGGCACC was tested, and the switch fluorescence ratio was 0.984.
For CGTAGGCGTC, the switch fluorescence ratio was 0.981.
In the case of CGTAGGTACT, the switch fluorescence ratio is reported as 0.965.
Work on CGTAGGTCA yielded a switch fluorescence ratio of 0.986.
Work on CGTAGTGCTA yielded a switch fluorescence ratio of 1.01.
CGTATAGAAG showed a switch fluorescence ratio of 1.06.
CGTATGATCC showed a switch fluorescence ratio of 1.03.
For CGTATGGGT, the switch fluorescence ratio was 1.
With CGTATTAGCA the switch fluorescence ratio was 1.04.
In the case of CGTATTCGAA, the switch fluorescence ratio is reported as 0.99.
Sequence CGTATTCGTT has a switch fluorescence ratio of 0.994.
CGTATTTACA gave a switch fluorescence ratio of 1.01.
In the case of CGTCAATCTG, the switch fluorescence ratio is reported as 1.1.
Sequence CGTCACCGCC has a switch fluorescence ratio of 1.23.
Work on CGTCAGCGCA yielded a switch fluorescence ratio of 1.29.
CGTCAGGGCC showed a switch fluorescence ratio of 1.
With CGTCAGGGTG the switch fluorescence ratio was 1.01.
With CGTCAGTCAG the switch fluorescence ratio was 0.985.
CGTCATGGTC was tested, and the switch fluorescence ratio was 1.01.
CGTCATTCTG showed a switch fluorescence ratio of 1.04.
CGTCCCTGGG gave a switch fluorescence ratio of 1.05.
For CGTCCGGTTT, the switch fluorescence ratio was 1.1.
Work on CGTCCTGAGC yielded a switch fluorescence ratio of 1.03.
CGTCCTTTGA was tested, and the switch fluorescence ratio was 1.04.
In the case of CGTCGAACAC, the switch fluorescence ratio is reported as 1.1.
CGTCGAAGCA showed a switch fluorescence ratio of 1.06.
Work on CGTCGATGG yielded a switch fluorescence ratio of 0.992.
CGTCGCGTGC was tested, and the switch fluorescence ratio was 0.971.
For CGTCGGAGCT, the switch fluorescence ratio was 1.07.
Work on CGTCGGCTGC yielded a switch fluorescence ratio of 1.04.
With CGTCGGGACA the switch fluorescence ratio was 0.982.
CGTCGGTTGA showed a switch fluorescence ratio of 1.01.
For CGTCGTGGCA, the switch fluorescence ratio was 1.08.
CGTCGTTGTC showed a switch fluorescence ratio of 1.01.
Work on CGTCTAATCC yielded a switch fluorescence ratio of 1.1.
CGTCTCGGGC was tested, and the switch fluorescence ratio was 1.04.
With CGTCTTC the switch fluorescence ratio was 0.99.
Sequence CGTCTTCTGA has a switch fluorescence ratio of 1.04.
With CGTCTTTCTT the switch fluorescence ratio was 1.02.
For CGTCTTTTGT, the switch fluorescence ratio was 0.993.
CGTGAACACA showed a switch fluorescence ratio of 1.06.
CGTGAAGATA showed a switch fluorescence ratio of 1.01.
CGTGAATATG was tested, and the switch fluorescence ratio was 0.989.
With CGTGAATCGA the switch fluorescence ratio was 1.03.
For CGTGACAGTT, the switch fluorescence ratio was 0.997.
CGTGACCATC gave a switch fluorescence ratio of 1.04.
Work on CGTGAGATAA yielded a switch fluorescence ratio of 1.02.
CGTGATTCGT was tested, and the switch fluorescence ratio was 0.999.
Sequence CGTGCAGCCA has a switch fluorescence ratio of 1.03.
For CGTGCAGTAG, the switch fluorescence ratio was 1.47.
For CGTGCCGCTA, the switch fluorescence ratio was 1.21.
Sequence CGTGCGCGA has a switch fluorescence ratio of 1.33.
CGTGCGCTCC showed a switch fluorescence ratio of 1.63.
Work on CGTGCGGCCA yielded a switch fluorescence ratio of 0.99.
CGTGCGTATC was tested, and the switch fluorescence ratio was 1.06.
CGTGCGTCGT was tested, and the switch fluorescence ratio was 0.931.
CGTGCGTCTT was tested, and the switch fluorescence ratio was 1.01.
CGTGCTCGCT was tested, and the switch fluorescence ratio was 1.03.
CGTGCTGACC gave a switch fluorescence ratio of 1.01.
With CGTGGAATG the switch fluorescence ratio was 0.987.
Sequence CGTGGACAAG has a switch fluorescence ratio of 0.982.
With CGTGGAGCTG the switch fluorescence ratio was 0.95.
In the case of CGTGGAGGCA, the switch fluorescence ratio is reported as 0.971.
Sequence CGTGGCCATC has a switch fluorescence ratio of 1.07.
CGTGGGGTG showed a switch fluorescence ratio of 0.994.
CGTGGGTAGG gave a switch fluorescence ratio of 1.04.
In the case of CGTGGGTTGG, the switch fluorescence ratio is reported as 0.991.
Sequence CGTGGTACGT has a switch fluorescence ratio of 0.969.
CGTGGTCGAC showed a switch fluorescence ratio of 1.04.
CGTGGTGATC showed a switch fluorescence ratio of 1.01.
Work on CGTGGTTTCA yielded a switch fluorescence ratio of 0.974.
For CGTGTAAAAG, the switch fluorescence ratio was 0.98.
Sequence CGTGTAAAAT has a switch fluorescence ratio of 1.
Work on CGTGTACAAC yielded a switch fluorescence ratio of 1.
CGTGTATTTT showed a switch fluorescence ratio of 1.02.
For CGTGTCACGG, the switch fluorescence ratio was 0.996.
CGTGTTGAAC showed a switch fluorescence ratio of 1.01.
Work on CGTGTTTCAG yielded a switch fluorescence ratio of 1.01.
CGTGTTTG gave a switch fluorescence ratio of 0.989.
CGTGTTTGTA showed a switch fluorescence ratio of 1.01.
In the case of CGTTAACTGG, the switch fluorescence ratio is reported as 1.03.
CGTTAATCCT was tested, and the switch fluorescence ratio was 1.12.
With CGTTACACAT the switch fluorescence ratio was 1.05.
In the case of CGTTACTGTT, the switch fluorescence ratio is reported as 0.971.
CGTTAGGATC gave a switch fluorescence ratio of 0.981.
CGTTAGGCAA gave a switch fluorescence ratio of 1.72.
With CGTTAGGGAT the switch fluorescence ratio was 1.02.
Work on CGTTAGTGAG yielded a switch fluorescence ratio of 0.999.
Work on CGTTAGTTTC yielded a switch fluorescence ratio of 0.953.
With CGTTAGTTTG the switch fluorescence ratio was 1.02.
For CGTTATGTCA, the switch fluorescence ratio was 0.992.
CGTTATGTTG was tested, and the switch fluorescence ratio was 0.867.
Work on CGTTATTTTC yielded a switch fluorescence ratio of 0.997.
In the case of CGTTCAACCC, the switch fluorescence ratio is reported as 1.05.
With CGTTCTGCGA the switch fluorescence ratio was 1.1.
CGTTGCGGAC gave a switch fluorescence ratio of 1.07.
CGTTGGGAAT showed a switch fluorescence ratio of 0.978.
CGTTGGGAGA gave a switch fluorescence ratio of 0.973.
CGTTGGTCTC gave a switch fluorescence ratio of 0.959.
CGTTGTGACA showed a switch fluorescence ratio of 0.994.
CGTTGTGCCA showed a switch fluorescence ratio of 0.965.
CGTTGTTACG was tested, and the switch fluorescence ratio was 0.933.
CGTTTAACGC was tested, and the switch fluorescence ratio was 0.969.
CGTTTATGTC gave a switch fluorescence ratio of 0.987.
CGTTTCAATC was tested, and the switch fluorescence ratio was 1.16.
With CGTTTCAGTC the switch fluorescence ratio was 0.965.
For CGTTTGTGAC, the switch fluorescence ratio was 1.01.
For CGTTTTAGAC, the switch fluorescence ratio was 0.98.
With CGTTTTTCGC the switch fluorescence ratio was 1.04.
With CTAAAAGCAA the switch fluorescence ratio was 1.74.
With CTAAAGCAAC the switch fluorescence ratio was 5.3.
CTAAAGCTGG showed a switch fluorescence ratio of 1.
For CTAAATATCT, the switch fluorescence ratio was 1.03.
CTAACAGTTA showed a switch fluorescence ratio of 0.995.
For CTAACCAGTT, the switch fluorescence ratio was 0.971.
For CTAACGGACC, the switch fluorescence ratio was 1.28.
CTAACGGCTT gave a switch fluorescence ratio of 1.01.
CTAACTACAA was tested, and the switch fluorescence ratio was 1.
Work on CTAACTCTGT yielded a switch fluorescence ratio of 1.
Work on CTAAGAAATA yielded a switch fluorescence ratio of 1.04.
CTAAGAGCCC was tested, and the switch fluorescence ratio was 1.02.
With CTAAGGGCA the switch fluorescence ratio was 0.974.
CTAAGGGCCA showed a switch fluorescence ratio of 0.979.
CTAAGTGAT showed a switch fluorescence ratio of 1.01.
In the case of CTAAGTTGCA, the switch fluorescence ratio is reported as 0.997.
For CTAATAACTA, the switch fluorescence ratio was 1.03.
CTAATACTCG was tested, and the switch fluorescence ratio was 1.34.
CTAATACTTT showed a switch fluorescence ratio of 0.977.
In the case of CTAATAGGAC, the switch fluorescence ratio is reported as 1.02.
With CTAATATGGC the switch fluorescence ratio was 0.955.
